# Experimental data from PubChem BioAssay (Tox21).
# Inconclusive means that the source gave no clear call. Such entries were picked first, then a sample of the others. For some of these results: Potencies of inconclusive entries are left out as doubtful fits. Activity calls are given as the source filed them. Unless noted, calls come from the whole dose curve; as a rule, active = well fitted curve in the direction sought with a large enough effect in the repeat runs; inconclusive = weak or mixed curves; inactive = no such curve, though single readings can be large; an effect the other way counts as inactive or inconclusive.
# Tests used:
# [1] = qHTS assay to identify small molecule antagonists of the estrogen receptor alpha (ER-alpha) signaling pathway - cell viability counter screen (AID 743074; calls by dose curve;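 note: HEK293 cells carrying ER-alpha-UAS-bla reporter stimulated with 17beta-estradiol; nearly all actives have a fitted effect of over 45% in size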; note: potency is the fitted concentration of half-maximal effect)
# [2] = qHTS assay to identify small molecule that activate the aryl hydrocarbon receptor (AhR) signaling pathway - cell viability counter screen (AID 743086); note: potency is the fitted concentration of half-maximal effect; nearly all actives have a fitted effect of over 45% in size
# Method in brief: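 Cytotoxicity counter screen: CellTiter-Fluor signal (30 min, 37 C) in 4000 HepG2 cells/well carrying the DRE-luciferase reporter, following 24 h compound exposure at 37 C.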
# [3] = qHTS assay to identify small molecule antagonists of the estrogen related receptor signaling pathway with the pleiotropic PPARgamma coactivator (PGC) cell viability counter screen (AID 1224822;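 note: viability read after 17.5 h compound exposure; % is set by controls: 0 for no effect and ±100 for the full control effect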)
# Method in brief: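 Cytotoxicity in the PGC/ERR cell line is assessed with CellTiter-Fluor, read as fluorescence intensity 30 min after reagent addition, following 17.5 h compound treatment at 37 C.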
# [4] = qHTS assay to identify small molecule antagonists of the estrogen related receptor (ERR) signaling pathway from Tox21 library - cell viability counter screen (AID 1224834); note: % is set by controls: 0 for no effect and ±100 for the full control effect; nearly all actives have a fitted effect of over 30% in size
# Method in brief: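 Compounds in DMSO were pinned onto ERR cells that had been incubated for 6 h, and the plates were held at 37 C for 17.5 h. CellTiter-Fluor reagent was then added and fluorescence was measured after 30 min.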
# [5] = qHTS assay to identify small molecule agonists of the hypoxia (HIF-1) signaling pathway - cell viability counter screen (AID 1224844; calls by dose curve; note: potency is the fitted concentration of half-maximal effect; nearly all actives have a fitted effect of over 50% in size)
# Method in brief: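 Viability counter screen: HRE-bla ME-180 cells plated 5 hrs before compound addition, treated 17 hrs at 37C and 5% CO2, then CellTiter-Glo added after the FRET reporter read; luminescence after 30 min.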
# [6] = qHTS RealTime-Glo MT Cell Viability Assay in HEK293 cells - 16 hour (AID 1224872); note: potency is the fitted concentration of half-maximal effect; nearly all actives have a fitted effect of over 50% in size
# Method in brief: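 Tox21 10K qHTS, HEK293, 600 cells/well, RealTime-Glo reagent co-dispensed with cells; 5 h preincubation, compound by pintool, 37 C, luminescence at 0–40 h.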
# [7] = qHTS RealTime-Glo MT Cell Viability Assay in HEK293 cells - 40 hour (AID 1224874); conditions: RealTime-Glo luminescence; max response: hits give low values; note: potency is the fitted concentration of half-maximal effect; nearly all actives have a fitted effect of over 50% in size
# Method in brief: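 600 HEK293 cells per well, dispensed already mixed with RealTime-Glo MT reagents. Compound dosing came 5 h later. The same wells were read for luminescence at 0, 8, 16, 24, 32 and 40 h of exposure at 37 C.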
# [8] = target: Androgen receptor (Homo sapiens) (UniProt P10275); test: qHTS assay to identify small molecule antagonists of the androgen receptor (AR) signaling pathway using the MDA cell line in the presence of 0.5 nM R1881 (AID 1259243); note: potency is the fitted concentration of half-maximal effect; nearly all actives have a fitted effect of over 50% in size
# UniProt P10275, sequence (P10275 whole entry, looked up): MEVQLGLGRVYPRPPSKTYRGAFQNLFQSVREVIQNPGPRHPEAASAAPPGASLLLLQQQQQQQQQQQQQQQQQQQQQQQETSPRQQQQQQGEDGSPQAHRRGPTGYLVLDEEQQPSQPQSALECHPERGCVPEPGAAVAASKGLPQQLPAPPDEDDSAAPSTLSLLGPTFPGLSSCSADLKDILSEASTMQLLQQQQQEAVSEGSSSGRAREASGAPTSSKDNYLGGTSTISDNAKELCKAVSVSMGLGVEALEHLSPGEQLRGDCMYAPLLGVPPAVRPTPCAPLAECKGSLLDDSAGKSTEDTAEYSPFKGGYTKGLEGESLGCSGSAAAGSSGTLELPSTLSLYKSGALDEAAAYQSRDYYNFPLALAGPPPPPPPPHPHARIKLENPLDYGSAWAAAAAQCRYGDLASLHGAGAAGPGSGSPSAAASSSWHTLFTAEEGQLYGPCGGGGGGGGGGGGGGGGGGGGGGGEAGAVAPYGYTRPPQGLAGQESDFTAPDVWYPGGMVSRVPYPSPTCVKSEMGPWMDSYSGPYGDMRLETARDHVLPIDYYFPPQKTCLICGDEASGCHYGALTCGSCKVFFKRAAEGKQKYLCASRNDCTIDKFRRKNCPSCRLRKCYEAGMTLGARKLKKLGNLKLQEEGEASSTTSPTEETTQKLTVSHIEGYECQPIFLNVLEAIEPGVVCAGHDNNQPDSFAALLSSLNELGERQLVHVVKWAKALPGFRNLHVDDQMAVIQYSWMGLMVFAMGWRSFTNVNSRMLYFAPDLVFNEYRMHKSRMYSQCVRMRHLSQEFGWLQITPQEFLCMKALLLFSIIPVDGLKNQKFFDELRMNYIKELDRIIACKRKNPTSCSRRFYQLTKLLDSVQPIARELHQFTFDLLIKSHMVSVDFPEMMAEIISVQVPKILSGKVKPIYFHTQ
# Method in brief: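 Antagonist mode quantitative HTS in MDA-kb2 MMTV-luciferase cells, agonist R1881 at 0.5 nM final, 16 hr exposure at 37C and 0% CO2, luminescent detection.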
# [9] = qHTS assay to identify small molecule antagonists of the sonic hedgehog signaling (Shh) pathway (AID 1259369; calls by dose curve; note: potency is the fitted concentration of half-maximal effect; nearly all actives have a fitted effect of over 45% in size)
# Method in brief: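 Stable Gli1-Luc reporter NIH/3T3 clone; quantitative HTS in stimulated mode with conditioned medium. Luminescence measured after 24hr compound treatment at 37 C.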
# [10] = qHTS assay to identify small molecule agonists of the androgen receptor (AR) signaling pathway in the presence of an antagonist - cell viability counter screen (AID 1259379);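 note: MDA-kb2 human breast cancer cells carrying an MMTV luciferase reporter; % is set by controls: 0 for no effect and ±100 for the full control effect; nearly all actives have a fitted effect of over 25% in size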
# Method in brief: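 Nilutamide-containing (3.0uM final) MDA-kb2 cultures, 3,000 cells/well, were treated with compounds across 15 concentrations. After 16 hr at 37C with no CO2, cell viability was determined by CellTiter-Fluor fluorescence in the luciferase assay wells.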
# [11] = target: Cytochrome P450 2C19 (Homo sapiens) (UniProt P33261); test: Cytochrome P450 Family 2 Subfamily C Member 19 (CYP2C19) small molecule antagonists: luciferase reporter qHTS assay (AID 1671197); note: potency is the fitted concentration of half-maximal effect; nearly all actives have a fitted effect of over 65% in size
# UniProt P33261, sequence (P33261 whole entry, looked up): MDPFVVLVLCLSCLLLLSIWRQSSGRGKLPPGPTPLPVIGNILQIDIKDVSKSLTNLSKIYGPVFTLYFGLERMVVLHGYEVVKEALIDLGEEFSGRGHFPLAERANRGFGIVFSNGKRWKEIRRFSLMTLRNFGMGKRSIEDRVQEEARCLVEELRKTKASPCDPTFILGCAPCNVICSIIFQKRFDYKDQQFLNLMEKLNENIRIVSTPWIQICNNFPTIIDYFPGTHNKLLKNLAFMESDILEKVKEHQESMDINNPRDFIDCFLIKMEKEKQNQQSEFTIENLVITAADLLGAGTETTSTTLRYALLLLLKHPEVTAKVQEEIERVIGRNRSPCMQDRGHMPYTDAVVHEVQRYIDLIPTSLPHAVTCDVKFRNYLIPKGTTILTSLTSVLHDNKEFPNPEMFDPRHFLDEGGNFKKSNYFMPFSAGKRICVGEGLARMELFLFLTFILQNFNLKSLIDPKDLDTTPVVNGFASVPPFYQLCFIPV
# Method in brief: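 Inhibition of CYP2C19 was scored from loss of luminescence in a P450-Glo proluciferin substrate assay, NADPH-started and run 1 h at 37C, with ketoconazole as positive control.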
# [12] = qHTS assay to identify small molecule agonists of the estrogen related receptor signaling pathway with the pleiotropic PPARgamma coactivator (PGC) (AID 1224823); note: potency is the fitted concentration of half-maximal effect
# Method in brief: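 Luminescence from One-Glo reagent (30 min, room temperature) was read after 18 h compound treatment at 37 C of PGC/ERR cells plated 6 h beforehand; compounds delivered in DMSO by pin tool.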
# [13] = qHTS assay for small molecule agonists of the p53 signaling pathway (AID 651631; calls by dose curve; note: % is set by controls: 0 for no effect and ±100 for the full control effect; nearly all actives have a fitted effect of over 15% in size); conditions: HCT-116 p53RE-bla reporter, beta-lactamase FRET ratio, 16 h; activation: at 73.3 µM (top of the series) unless noted
# Method in brief: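 Read-out is beta-lactamase FRET fluorescence measured 2 h after substrate addition at room temperature, in HCT-116 cells with a p53 response element-driven reporter exposed to compounds for 16 h at 37 °C.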
# [14] = qHTS assay for small molecule disruptors of the mitochondrial membrane potential (AID 720635); conditions: HepG2 mitochondrial membrane potential, Mito-MPS dye ratio; ratio activity, negative = MMP loss: at 83.2 µM (top of the series) unless noted; note: % is set by controls: 0 for no effect and ±100 for the full control effect
# Method in brief: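 Mitochondrial membrane potential tracked with Mito-MPS dye, red aggregates (ex 540/em 590 nm) against green monomers (ex 490/em 535 nm). Compound treatment 1 hr at 37C, dye 30 min in HepG2.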
# [15] = target: Glucocorticoid receptor (Homo sapiens) (UniProt P04150); test: qHTS assay to identify small molecule antagonists of the glucocorticoid receptor (GR) signaling pathway (AID 720692; active = well fitted inhibition curve with a large enough effect in the signal ratio in the repeat runs, not every such curve was filed as active; inconclusive = weak or mixed curves, or effect the other way; inactive = no such curve, though single readings can be large or run the other way; the % refers to the signal ratio; note: % is set by controls: 0 for no effect and ±100 for the full control effect); conditions: GR-bla HeLa, beta-lactamase FRET ratio, dexamethasone-stimulated, 18 h; activity change, negative = inhibition: at 58.5 µM (top of the series) unless noted
# UniProt P04150, sequence (P04150 whole entry, looked up): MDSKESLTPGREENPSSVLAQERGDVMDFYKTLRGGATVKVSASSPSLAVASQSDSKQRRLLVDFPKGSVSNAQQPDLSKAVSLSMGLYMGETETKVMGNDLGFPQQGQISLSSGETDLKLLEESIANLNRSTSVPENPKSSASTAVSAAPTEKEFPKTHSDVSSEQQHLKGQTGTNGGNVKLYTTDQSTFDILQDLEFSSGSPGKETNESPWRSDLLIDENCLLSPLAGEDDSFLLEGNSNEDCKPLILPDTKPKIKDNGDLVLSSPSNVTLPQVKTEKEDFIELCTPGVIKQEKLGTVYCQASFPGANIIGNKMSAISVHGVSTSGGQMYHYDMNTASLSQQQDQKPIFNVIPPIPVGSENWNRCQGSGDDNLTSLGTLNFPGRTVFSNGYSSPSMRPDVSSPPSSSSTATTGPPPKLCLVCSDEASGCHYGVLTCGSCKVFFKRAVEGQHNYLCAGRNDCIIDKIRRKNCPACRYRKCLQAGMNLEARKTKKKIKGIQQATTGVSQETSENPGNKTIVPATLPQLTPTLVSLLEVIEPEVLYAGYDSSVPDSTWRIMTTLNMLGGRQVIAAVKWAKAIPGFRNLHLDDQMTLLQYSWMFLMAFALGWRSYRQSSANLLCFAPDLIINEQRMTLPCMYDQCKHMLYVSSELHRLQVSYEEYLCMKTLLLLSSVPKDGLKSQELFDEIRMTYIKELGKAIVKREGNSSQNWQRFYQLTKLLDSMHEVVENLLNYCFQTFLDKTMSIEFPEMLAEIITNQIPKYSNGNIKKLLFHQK
# Method in brief: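 Quantitative HTS in antagonist format: HeLa cells expressing endogenous GR and a stably integrated GRE-bla reporter, stimulated with 5 nM dexamethasone (final) alongside test compounds for 18 h.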
# [16] = qHTS assay to identify small molecule antagonists of the estrogen receptor alpha (ER-alpha) signaling pathway using the BG1 cell line - cell viability counter screen (AID 743081); conditions: BG1Luc4E2 viability, CellTiter-Fluor, 22 h; activity change, negative = cytotoxicity: at 70.3 µM (top of the series) unless noted;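 note: compound given together with 17beta-estradiol as the ER stimulus; potency is the fitted concentration of half-maximal effect; nearly all actives have a fitted effect of over 45% in size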
# [17] = target: Peroxisome proliferator-activated receptor gamma (Homo sapiens) (UniProt P37231); test: qHTS assay to identify small molecule antagonists of the peroxisome proliferator-activated receptor gamma (PPARg) signaling pathway (AID 743191; calls by dose curve; note: % is set by controls: 0 for no effect and ±100 for the full control effect; nearly all actives have a fitted effect of over 30% in size); conditions: HEK293H PPARg-UAS-bla, beta-lactamase ratio, antagonist, 17 h; ratio activity, negative = inhibition: at 62.6 µM (top of the series) unless noted
# UniProt P37231, sequence (P37231 whole entry, looked up): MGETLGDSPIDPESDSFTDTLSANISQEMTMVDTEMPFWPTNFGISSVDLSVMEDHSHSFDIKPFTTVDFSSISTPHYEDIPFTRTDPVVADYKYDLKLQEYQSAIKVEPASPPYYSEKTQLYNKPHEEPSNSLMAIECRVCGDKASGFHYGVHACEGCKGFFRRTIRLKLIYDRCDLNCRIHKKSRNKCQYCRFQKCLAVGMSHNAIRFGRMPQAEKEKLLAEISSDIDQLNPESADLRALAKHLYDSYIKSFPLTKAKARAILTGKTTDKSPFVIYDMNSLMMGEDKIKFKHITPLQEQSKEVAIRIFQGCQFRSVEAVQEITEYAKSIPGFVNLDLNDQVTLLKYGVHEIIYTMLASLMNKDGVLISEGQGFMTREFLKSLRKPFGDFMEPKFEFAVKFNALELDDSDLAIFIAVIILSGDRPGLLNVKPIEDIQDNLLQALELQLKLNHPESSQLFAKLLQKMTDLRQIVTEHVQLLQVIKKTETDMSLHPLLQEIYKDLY
# Method in brief: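 Beta-lactamase reporter under UAS control in HEK293H PPARg-bla cells; compound treatment 17 h at 37C. Read-out: fluorescence intensity after 1 h room-temperature incubation with LiveBLAzer B/G FRET substrate.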
# [18] = target: Bile acid receptor (Homo sapiens) (UniProt Q96RI1); test: qHTS assay to identify small molecule antagonists of the farnesoid-X-receptor (FXR) signaling pathway (AID 743217; active = well fitted inhibition curve with a large enough effect in the signal ratio in the repeat runs, not every such curve was filed as active; inconclusive = weak or mixed curves, or effect the other way; inactive = no such curve, though single readings can be large or run the other way; the % refers to the signal ratio; note: % is set by controls: 0 for no effect and ±100 for the full control effect); conditions: HEK293T FXR-UAS-bla, beta-lactamase ratio, CDCA-stimulated, 16 h; activity change, negative = inhibition: at 62.6 µM (top of the series) unless noted
# UniProt Q96RI1, sequence (Q96RI1 whole entry, looked up): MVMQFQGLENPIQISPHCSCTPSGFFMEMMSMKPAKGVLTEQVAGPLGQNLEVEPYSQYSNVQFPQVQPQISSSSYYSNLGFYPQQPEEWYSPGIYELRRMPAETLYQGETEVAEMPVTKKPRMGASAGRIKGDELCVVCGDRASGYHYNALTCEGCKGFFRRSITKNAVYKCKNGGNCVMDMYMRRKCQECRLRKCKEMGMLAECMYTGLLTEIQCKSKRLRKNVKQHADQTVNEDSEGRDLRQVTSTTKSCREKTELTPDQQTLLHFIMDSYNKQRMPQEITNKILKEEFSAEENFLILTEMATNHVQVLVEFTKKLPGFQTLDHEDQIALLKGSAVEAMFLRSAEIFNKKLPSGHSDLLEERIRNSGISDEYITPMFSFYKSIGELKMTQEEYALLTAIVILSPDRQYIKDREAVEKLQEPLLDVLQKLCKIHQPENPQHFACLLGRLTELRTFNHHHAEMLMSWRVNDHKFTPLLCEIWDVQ
# Method in brief: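 Screen of the Tox21 10K library in quantitative HTS format using FXR-UAS-bla HEK 293T reporter cells. Agonist chenodeoxycholic acid, 50 uM final, added with compounds; 16 h incubation at 37 °C; beta-lactamase FRET fluorescence measured.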
# [19] = qHTS assay to identify small molecule agonists of the farnesoid-X-receptor (FXR) signaling pathway - cell viability counter screen (AID 743218); conditions: FXR-bla HEK293T viability, CellTiter-Glo luminescence, 16 h; viability change, negative = cytotoxic: at 62.6 µM (top of the series) unless noted
# Method in brief: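 Viability of FXR-bla HEK 293T cells is measured by ATP-based CellTiter-Glo luminescence following 16 h compound treatment at 37 C and a prior 2 h room-temperature beta-lactamase substrate step.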
# [20] = target: Thyrotropin receptor (Homo sapiens) (UniProt P16473); test: qHTS assay to identify small molecule agonists of the thyroid stimulating hormone receptor (TSHR) signaling pathway (AID 1224843; calls by dose curve); conditions: TSHR-HEK293 cells, cAMP HTRF, agonist mode, 30 min; activation: at 92.4 µM (top of the series) unless noted
# UniProt P16473, sequence (P16473 whole entry, looked up): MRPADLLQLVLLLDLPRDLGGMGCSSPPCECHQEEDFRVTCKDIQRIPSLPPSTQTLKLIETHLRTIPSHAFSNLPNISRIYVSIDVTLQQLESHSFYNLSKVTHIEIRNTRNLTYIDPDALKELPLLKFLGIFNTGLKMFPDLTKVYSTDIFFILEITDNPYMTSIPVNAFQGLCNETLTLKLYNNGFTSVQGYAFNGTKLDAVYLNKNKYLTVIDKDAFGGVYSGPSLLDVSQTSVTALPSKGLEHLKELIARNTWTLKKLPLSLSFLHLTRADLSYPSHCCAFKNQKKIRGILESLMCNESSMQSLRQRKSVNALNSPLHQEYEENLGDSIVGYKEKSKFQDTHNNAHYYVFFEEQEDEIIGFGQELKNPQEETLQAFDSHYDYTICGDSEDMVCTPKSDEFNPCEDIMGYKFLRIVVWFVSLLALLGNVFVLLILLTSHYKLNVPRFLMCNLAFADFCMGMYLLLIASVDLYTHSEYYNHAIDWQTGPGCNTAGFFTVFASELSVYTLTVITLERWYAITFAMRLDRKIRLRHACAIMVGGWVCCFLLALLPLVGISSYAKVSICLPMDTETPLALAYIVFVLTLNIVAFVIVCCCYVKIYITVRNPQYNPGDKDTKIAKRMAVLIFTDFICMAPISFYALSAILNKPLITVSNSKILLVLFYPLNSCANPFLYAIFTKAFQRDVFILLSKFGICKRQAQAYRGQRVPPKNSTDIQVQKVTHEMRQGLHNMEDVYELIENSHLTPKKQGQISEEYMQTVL
# Method in brief: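 Agonist activity read as cAMP rise via d2/cryptate HTRF competition, 1 h room-temperature detection, in HEK293 cells expressing TSHR. Fifteen-point titrations, each run in triplicate, with a 30 min room-temperature incubation beforehand.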
# [21] = A CellTox Green Cytotoxicity Assay to monitor cytotoxicity in HepG2 cells - 24 hour (AID 1224878)
# Method in brief: (§1)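 First, HepG2 cells (600/well) mixed with reagent were plated; second, after 5 h at 37 C they received compounds via pintool; third, fluorescence was measured at 0 h through 40 h at 8 h intervals.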
# [22] = A CellTox Green Cytotoxicity Assay to monitor cytotoxicity in HEK293 cells - 32 hour (AID 1224881); note: potency is the fitted concentration of half-maximal effect; nearly all actives have a fitted effect of over 40% in size
# Method in brief: (§2)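 Dead-cell fluorescence measured kinetically: asymmetric cyanine dye, HEK293, 600 cells/well, 5 h settle, 23 nL cpd/DMSO, 37 C, reads 0–40 h every 8 h.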
# [23] = A CellTox Green Cytotoxicity Assay to monitor cytotoxicity in HepG2 cells - 0 hour (AID 1224882); note: potency is the fitted concentration of half-maximal effect; nearly all actives have a fitted effect of over 35% in size
# Method in brief: as §1
# [24] = A CellTox Green Cytotoxicity Assay to monitor cytotoxicity in HEK293 cells - 16 hour (AID 1224888); note: potency is the fitted concentration of half-maximal effect; nearly all actives have a fitted effect of over 35% in size
# Method in brief: as §2
# [25] = qHTS assay to identify small molecule HDAC inhibitors (AID 1259364)
# Method in brief: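 Quantitative high-throughput format: overnight-seeded HCT-116 cells got compounds for 2 hr at 37C; HDAC-Glo I/II reagent added, 30 min RT, luminescence measured.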
# [26] = qHTS assay to identify small molecule agonists of the progesterone receptor (PR) signaling pathway - cell viability counter screen (AID 1346799; calls by dose curve)
# Method in brief: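 Luminescence from CellTiter-Glo, added after the beta-lactamase FRET read in the same wells, gave cytotoxicity in PR-UAS-bla HEK293T cells treated with compounds for 16 hr at 37C.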
# [27] = target: Nuclear receptor subfamily 1 group I member 2 (Homo sapiens) (UniProt O75469); test: Human pregnane X receptor (PXR) small molecule agonists, qHTS assay (AID 1346982); note: potency is the fitted concentration of half-maximal effect; nearly all actives have a fitted effect of over 35% in size
# Method in brief: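 Reporter HepG2 cells expressing PXR-Luc are cultured in charcoal-stripped FBS (5%), treated with compounds for 24 hr at 37 C, and assayed by ONE-Glo luminescence after 30 min at room temperature.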
# [28] = target: Nuclear receptor subfamily 1 group I member 2 (Homo sapiens) (UniProt O75469); test: Human pregnane X receptor (PXR) activation by small molecules, qHTS assay (AID 1346985); note: potency is the fitted concentration of half-maximal effect; nearly all actives have a fitted effect of over 40% in size
# Method in brief: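 DPX-2 cells (HepG2 co-transfected with a PXR response element and a CYP3A4-promoter luciferase construct) were seeded at 2,000 per well, rested 5 hr at 37C, then exposed to DMSO-dissolved compounds for 24 hr. Activation was read as luciferase luminescence.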
# Tags give direction and shape of the fitted curve.
compound,measurement,setting,value
CC(C)Cc1ccc([C@H](C)C(=O)O)cc1,Potency,[1],inactive
same,Potency,[2],"inconclusive [rising, partial curve, poor fit]"
same,Potency,[3],inactive
OCCN1CN(CCO)CN(CCO)C1,Potency,[4],inactive
same,Potency,[5],"inconclusive [cytotoxic, single point]"
same,Potency,[6],"inconclusive [cytotoxic, single point]"
same,Potency,[7],"inconclusive [cytotoxic, partial curve, poor fit]"
same,Potency,[8],"inconclusive [inhibitor, partial curve]"
same,Potency,[9],"inconclusive [inhibitor, single point]"
same,Potency,[10],inactive
same,Potency,[11],"inconclusive [inhibitor, single point]"
CNc1ncnc2c1ncn2[C@@H]1O[C@H](CO)C(O)[C@H]1O (stereo partly specified),Potency,[12],inconclusive [activator]
CN(C)CCCSc1ccccc1NC(=O)/C=C/c1ccccc1,Potency,[13],inactive
same,Potency,[14],inactive
same,Potency,[15],inactive
same,Potency,[1],"inconclusive [cytotoxic, single point]"
same,Potency,[16],"inconclusive [cytotoxic, partial curve, poor fit]"
same,"ratio activity, negative = inhibition",[17],inconclusive: -11.5%
same,"activity change, negative = inhibition",[18],inconclusive: -15%
same,Potency,[19],"inconclusive [cytotoxic, partial curve, poor fit]"
same,Potency,[4],inactive
same,Potency,[20],inactive
same,Potency,[21],active: 19 µM
same,Potency,[22],active: 19 µM
same,Potency,[23],active: 19 µM
same,Potency,[24],active: 16.9 µM
same,Potency,[25],active: 8.41 µM
same,Potency,[26],"inconclusive [cytotoxic, partial curve, poor fit]"
same,Potency,[27],"inconclusive [activator, partial curve, poor fit]"
same,Potency,[28],"inconclusive [activator, partial curve]"
same,Potency,[11],active: 38.9 µM
